# Some of the results follow. At the low end of the ranking the order means little.
# Biological target: SIX1 homeodomain (reference allele) (UniProt Q15475)
# Assay: universal protein binding microarray
# Details: Universal all-10-mer PBM (8x60K, AMADID 030236), 300 nM GST-tagged protein, Alexa Fluor 488 anti-GST; buffer, salt, pH and temperature not stated; high values mean tight binding; most listed sequences are background and not binding sites; double strand, one strand shown
row,Sequence,binding signal [E-score]
1,CCAATCAA,-0.0789
2,ACGATCCC,0.337
3,AGAAATCT,-0.123
4,ACTTCAGA,-0.133
5,GTGGTGAA,-0.299
6,ATAGTGAA,0.0164
7,GTCAGACA,-0.128
8,AGAACGGG,-0.102
9,GGGAGCCA,-0.189
10,AACGGACG,-0.162
11,GTGCTATA,0.0789
12,ACTATCCA,0.241
13,ACACGGGA,0.101
14,CCTTTAAG,0.033
15,CGTAATGC,-0.0389
16,ACGCCGCA,-0.164
17,CCCACATA,0.058
18,CAAAATGC,-0.165
19,ATCACGAT,0.241
20,ATAGGAAC,-0.0728
21,GCTAAAGC,-0.127
22,CTAAAACA,-0.108
23,CCGATTTA,-0.0568
24,CGAGCTTA,-0.085
25,CGCCACGA,-0.11

row,Sequence,binding signal [E-score]
1,AGGATCGC,0.27
2,ACTATTCG,-0.0957
3,AACTTACG,-0.159
4,AAACGCCT,-0.297
5,CCAGTGGC,-0.096
6,CGGTTAGC,-0.261
7,ATCCGTAC,0.275
8,TATCAACA,0.399
9,CAGCCAGG,-0.0751
10,AATGTCGT,-0.107
11,TCAAGTAA,0.0502
12,CACTAGTC,-0.172
13,CGCCCCTC,-0.0608
14,CCACTAAC,-0.0837
15,CGGTAAAA,-0.0378
16,CTACAAGA,0.0135
17,CATCCAAC,0.0473
18,ACTTCTCT,-0.0682
19,CTTAATCA,0.108
20,AACCTGAT,0.184
21,CAGATTGA,0.219
22,ACCGGAAC,-0.0218
23,ATCGAGTC,-0.0674
24,GTGCCGTA,0.12
25,CGCTTATC,-0.0243

row,Sequence,binding signal [E-score]
1,ATGGCAAA,-0.285
2,AAGTGACT,-0.204
3,CCACTTTA,-0.101
4,ACAGGTGC,-0.0796
5,CGTGCATA,0.103
6,CCCACGAA,-0.0902
7,GTAAAACA,-0.242
8,CATACGTA,0.149
9,AGCTACTG,-0.0748
10,CATCACTA,0.0244
11,AACATGCG,-0.25
12,GTTTCGGA,0.0948
13,AGCGAGGA,0.13
14,AGATGCGG,0.111
15,TATTATCA,0.187
16,CTCGGCAA,-0.18
17,TAGAGACA,-0.0919
18,TAAATGAA,-0.0616
19,CGCGTCAG,-0.0632
20,AGTCAAGA,-0.129
21,GCCGGGGA,0.0776
22,AAGTTGGC,-0.2
23,CCCTGACA,-0.0294
24,CAAACGCC,-0.187
25,CCAAGACA,0.0581

row,Sequence,binding signal [E-score]
1,CATCCGTA,0.168
2,ATCGTGCG,0.155
3,CGCCCTGA,0.146
4,ATAGTCTG,0.125
5,AGCGCCCT,-0.00309
6,CACATTGA,-0.0524
7,CCCGACCA,0.0242
8,ACCAGAAG,-0.0043
9,CCCTGTAG,0.0139
10,TAAACACA,-0.166
11,CGGCGAAG,-0.109
12,CAGTCATC,-0.181
13,ATGACCTG,-0.118
14,ATCGGAGA,0.226
15,TAGCTGCA,-0.198
16,CATTCGCC,-0.166
17,CGAGGAGA,0.035
18,CAGGGATG,0.0159
19,AGAGATTA,0.116
20,AGATCCCC,0.384
21,CGTTCCCC,-0.0149
22,CAAGTCTG,-0.0857
23,GCGTCTAC,0.00749
24,CCATCAAA,-0.119
25,ATAATAAA,0.101

row,Sequence,binding signal [E-score]
1,ATAATTGA,0.00451
2,ATCATCCA,0.275
3,GCATGAGC,-0.0935
4,ACGGCAGG,-0.088
5,CACAATCA,-0.0591
6,CTGCTCGA,-0.024
7,GATGTCCA,-0.121
8,CCGACTTC,-0.167
9,CTGTACCA,-0.0549
10,GGCCAGCA,-0.158
11,AATTACCA,-0.193
12,CATATCAC,0.446
13,AAAAAATT,-0.261
14,AGAAGGCT,-0.0599
15,TCAGAGAA,-0.208
16,CCGGTTCG,0.138
17,CAACCGCC,-0.189
18,CGACACTC,0.177
19,AGCAATGG,-0.0841
20,AGCCTGCC,-0.293
21,ACACTTAC,-0.0206
22,AATAGCAT,0.0424
23,ATTTTTGA,0.0643
24,GTAATGAC,-0.216
25,ACCAAGGT,-0.0621

row,Sequence,binding signal [E-score]
1,ATTGTAAA,-0.107
2,TACACTAA,-0.0209
3,ACGTCTAT,0.0832
4,GTCGACAA,-0.192
5,CGAAGGGA,0.127
6,TAACATCA,-0.0855
7,CTTCTGGC,-0.107
8,GGAACCAC,-0.139
9,AGGGGCGG,0.174
10,GTGGTTTA,-0.0852
11,AAACACCC,0.253
12,CCGGGGAC,-0.0319
13,CCCGGCAA,0.0881
14,AATCAACT,-0.217
15,GTCACACA,-0.0492
16,TAAGGGCA,-0.0646
17,AATCGAGT,-0.0699
18,AACTGCCC,-0.0604
19,AGCACTGC,-0.15
20,AACGCGGG,0.0702
21,ACAACTCT,-0.309
22,ACTCTCGA,-0.089
23,CCAGAGAA,-0.0225
24,CTCAGGGC,0.058
25,CGATACGA,0.398

row,Sequence,binding signal [E-score]
1,TAACGTCA,-0.242
2,ACCCGTGC,-0.0484
3,ACTGCAAG,-0.173
4,GTGCTTTA,-0.0927
5,AGCCACGC,-0.231
6,GCCTTCCA,-0.328
7,CCGCTAGG,-0.0855
8,CAGGGTTA,-0.0346
9,AAGCATGC,-0.306
10,ACAAGGGT,0.0328
11,ACAGCGAA,-0.127
12,AGTACAAA,-0.135
13,CGGCAGGA,-0.232
14,ATTAGGAG,0.0574
15,AGAACAGA,-0.196
16,TAGGTGCA,-0.154
17,AAATGCTG,-0.179
18,ACGGGTTA,-0.103
19,AGGCCTCC,-0.129
20,CCCGAATA,0.0806
21,CAGATACA,0.355
22,GGCTATCA,0.392
23,AGTCAGGG,-0.146
24,AACGGCCG,-0.245
25,CTAAGTAG,-0.0326

row,Sequence,binding signal [E-score]
1,CGCATCAG,0.0639
2,ACAGCATC,-0.152
3,CCTGATGA,0.0265
4,CTGTTGGC,-0.0951
5,GGATACGA,0.36
6,ACACGGGG,0.148
7,TGAACTAA,-0.115
8,GGAGATCA,0.386
9,AGCCTAGG,-0.138
10,GAGAAGAC,0.0224
11,AGGCTATC,0.329
12,CCTGCGGA,0.102
13,ATCCGGAC,0.24
14,AAGGGCTG,-0.205
15,CATGTTGA,0.214
16,TAGAGGAA,0.0565
17,AACCGCAG,-0.0717
18,AAACGTAG,-0.0936
19,AGCAGTTC,-0.0895
20,ATATAGGA,0.281
21,ACGGCTGC,-0.0906
22,CGGGAGAC,-0.0662
23,GCAAACTA,-0.0166
24,CGGACGTC,-0.14
25,TAGTCAAA,-0.0622

row,Sequence,binding signal [E-score]
1,AGGGGGGA,0.206
2,GCGCCAGC,-0.209
3,CACGTTGA,-0.0354
4,GAACGCGA,-0.0318
5,GTAGCGAA,-0.00606
6,AGTGTACC,0.16
7,TGAAAGCA,-0.112
8,ACCGTGTG,-0.01
9,ATTACTCG,-0.0411
10,ATCCTCCG,0.324
11,GGCCGGCA,-0.155
12,CGCGCACG,-0.0928
13,ACTTCGGG,-0.0525
14,GACCCGTC,-0.0551
15,CGTCGGGA,0.0309
16,CGACTGAG,-0.196
17,ACAAACTG,-0.186
18,AAGACGCC,-0.00505
19,CGGACCCG,-0.128
